Test results from the supplement of paper PMC8728848.
The other results are listed elsewhere or left out.

What was measured:
Experiment in all cases: glycan array binding signal (z-score within array); higher = stronger binding
Settings in all cases: glycan notation: IUPAC condensed, linker removed
[1] = biological target: Neu5Ac(a2-3)Gal(b1-4)GlcNAc(b1-2)Man(a1-3)[Neu5Ac(a2-6)Gal(b1-4)GlcNAc(b1-2)Man(a1-6)]Man(b1-4)GlcNAc(b1-4)GlcNAc
How it was run: (§1)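 From the Consortium for Functional Glycomics database, 3228 arrays were curated, keeping only those whose protein sequence was available. Binding is given as a within-array Z-score averaged across arrays sharing a protein sequence and across linkers. Negative Z-scores can be read as non-binding.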

[2] = biological target: Neu5Ac(a2-3)Gal(b1-4)GlcNAc(b1-2)[Neu5Ac(a2-3)Gal(b1-4)GlcNAc(b1-4)]Man(a1-3)[GlcNAc(b1-4)][Neu5Ac(a2-3)Gal(b1-4)GlcNAc(b1-2)[Neu5Ac(a2-3)Gal(b1-4)GlcNAc(b1-6)]Man(a1-6)]Man(b1-4)GlcNAc(b1-4)GlcNAc
How it was run: as §1

[3] = biological target: Neu5Ac(a2-3)Gal(b1-4)GlcNAc(b1-2)[Neu5Ac(a2-3)Gal(b1-4)GlcNAc(b1-4)]Man(a1-3)[GlcNAc(b1-4)][Neu5Ac(a2-3)Gal(b1-4)GlcNAc(b1-4)Man(a1-6)]Man(b1-4)GlcNAc(b1-4)GlcNAc
How it was run: as §1

[4] = biological target: Neu5Ac(a2-3)Gal(b1-4)GlcNAc(b1-2)[Neu5Ac(a2-3)Gal(b1-4)GlcNAc(b1-6)]Man(a1-6)[Neu5Ac(a2-3)Gal(b1-4)GlcNAc(b1-2)Man(a1-3)][GlcNAc(b1-4)]Man(b1-4)GlcNAc(b1-4)GlcNAc
How it was run: as §1

[5] = biological target: Neu5Ac(a2-3)Gal(b1-4)GlcNAc(b1-3)Gal
How it was run: as §1

[6] = biological target: Neu5Ac(a2-3)Gal(b1-4)GlcNAc(b1-3)Gal(b1-3)GlcNAc
How it was run: as §1

[7] = biological target: Neu5Ac(a2-3)Gal(b1-4)GlcNAc(b1-3)Gal(b1-4)GlcNAc
How it was run: as §1

[8] = biological target: Neu5Ac(a2-3)Gal(b1-4)GlcNAc(b1-3)Gal(b1-4)GlcNAc(b1-2)Man(a1-3)[Neu5Ac(a2-3)Gal(b1-4)GlcNAc(b1-3)Gal(b1-4)GlcNAc(b1-2)Man(a1-6)]Man(b1-4)GlcNAc(b1-4)GlcNAc
How it was run: as §1

[9] = biological target: Neu5Ac(a2-3)Gal(b1-4)GlcNAc(b1-3)Gal(b1-4)GlcNAc(b1-3)Gal(b1-4)GlcNAc
How it was run: as §1

[10] = biological target: Neu5Ac(a2-3)Gal(b1-4)GlcNAc(b1-3)Gal(b1-4)GlcNAc(b1-3)Gal(b1-4)GlcNAc(b1-2)Man(a1-3)[Neu5Ac(a2-3)Gal(b1-4)GlcNAc(b1-3)Gal(b1-4)GlcNAc(b1-3)Gal(b1-4)GlcNAc(b1-2)Man(a1-6)]GalNAc
How it was run: as §1

[11] = biological target: Neu5Ac(a2-3)Gal(b1-4)GlcNAc(b1-3)Gal(b1-4)GlcNAc(b1-3)GalNAc
How it was run: as §1

[12] = biological target: Neu5Ac(a2-3)Gal(b1-4)GlcNAc(b1-3)Gal(b1-4)GlcNAc(b1-3)[Neu5Ac(a2-3)Gal(b1-4)GlcNAc(b1-3)Gal(b1-4)GlcNAc(b1-6)]GalNAc
How it was run: as §1

[13] = biological target: Neu5Ac(a2-3)Gal(b1-4)GlcNAc(b1-3)Gal(b1-4)GlcNAc(b1-6)[Gal(b1-3)]GalNAc
How it was run: as §1

[14] = biological target: Neu5Ac(a2-3)Gal(b1-4)GlcNAc(b1-3)Gal(b1-4)[Fuc(a1-3)]GlcNAc
How it was run: as §1

[15] = biological target: Neu5Ac(a2-3)Gal(b1-4)GlcNAc(b1-3)GalNAc
How it was run: as §1

[16] = biological target: Neu5Ac(a2-3)Gal(b1-4)GlcNAc(b1-3)[Neu5Ac(a2-3)Gal(b1-4)GlcNAc(b1-6)]GalNAc
How it was run: as §1

[17] = biological target: Neu5Ac(a2-3)Gal(b1-4)GlcNAc(b1-6)GalNAc
How it was run: as §1

[18] = biological target: Neu5Ac(a2-3)Gal(b1-4)GlcNAc(b1-6)[Gal(b1-3)]GalNAc
How it was run: as §1

[19] = biological target: Neu5Ac(a2-3)Gal(b1-4)GlcNAc(b1-6)[Neu5Ac(a2-3)Gal(b1-3)]GalNAc
How it was run: as §1

[20] = biological target: Neu5Ac(a2-3)Gal(b1-4)GlcNAc6S
How it was run: as §1

[21] = biological target: Neu5Ac(a2-3)Gal(b1-4)[Fuc(a1-3)]GlcNAc
How it was run: as §1

[22] = biological target: Neu5Ac(a2-3)Gal(b1-4)[Fuc(a1-3)]GlcNAc(b1-2)Man
How it was run: as §1

[23] = biological target: Neu5Ac(a2-3)Gal(b1-4)[Fuc(a1-3)]GlcNAc(b1-3)Gal
How it was run: as §1

[24] = biological target: Neu5Ac(a2-3)Gal(b1-4)[Fuc(a1-3)]GlcNAc(b1-3)Gal(b1-4)GlcNAc
How it was run: as §1

[25] = biological target: Neu5Ac(a2-3)Gal(b1-4)[Fuc(a1-3)]GlcNAc(b1-3)Gal(b1-4)[Fuc(a1-3)]GlcNAc(b1-3)Gal(b1-4)[Fuc(a1-3)]GlcNAc
How it was run: as §1

[26] = biological target: Neu5Ac(a2-3)Gal(b1-4)[Fuc(a1-3)]GlcNAc(b1-3)GalNAc
How it was run: as §1

[27] = biological target: Neu5Ac(a2-3)Gal(b1-4)[Fuc(a1-3)]GlcNAc(b1-6)[Gal(b1-3)]GalNAc
How it was run: as §1

[28] = biological target: Neu5Ac(a2-3)Gal(b1-4)[Fuc(a1-3)]GlcNAc(b1-6)[Neu5Ac(a2-3)Gal(b1-3)]GalNAc
How it was run: as §1

[29] = biological target: Neu5Ac(a2-3)Gal(b1-4)[Fuc(a1-3)]GlcNAc6S
How it was run: as §1

[30] = biological target: Neu5Ac(a2-3)Gal6S(b1-4)GlcNAc
How it was run: as §1

[31] = biological target: Neu5Ac(a2-3)Gal6S(b1-4)[Fuc(a1-3)]GlcNAc
How it was run: as §1

Neu5Ac(a2-3)GalNAc = biological target: Neu5Ac(a2-3)GalNAc
How it was run: as §1

[32] = biological target: Neu5Ac(a2-3)GalNAc(b1-4)GlcNAc
How it was run: as §1

[33] = biological target: Neu5Ac(a2-3)[GalNAc(b1-4)]Gal(b1-4)Glc
How it was run: as §1

[34] = biological target: Neu5Ac(a2-3)[GalNAc(b1-4)]Gal(b1-4)GlcNAc
How it was run: as §1

[35] = biological target: Neu5Ac(a2-3)[GalNAc(b1-4)]Gal(b1-4)GlcNAc(b1-3)GalNAc
How it was run: as §1

[36] = biological target: Neu5Ac(a2-3)[Neu5Ac(a2-6)]GalNAc
How it was run: as §1

Neu5Ac(a2-6)Gal = biological target: Neu5Ac(a2-6)Gal
How it was run: as §1

[37] = biological target: Neu5Ac(a2-6)Gal(b1-3)GlcNAc(b1-3)[Gal(b1-4)GlcNAc(b1-6)]Gal(b1-4)Glc
How it was run: as §1

Neu5Ac(a2-6)Gal(b1-4)Glc = biological target: Neu5Ac(a2-6)Gal(b1-4)Glc
How it was run: as §1

[38] = biological target: Neu5Ac(a2-6)Gal(b1-4)GlcNAc
How it was run: as §1

[39] = biological target: Neu5Ac(a2-6)Gal(b1-4)GlcNAc(b1-2)Man
How it was run: as §1

[40] = biological target: Neu5Ac(a2-6)Gal(b1-4)GlcNAc(b1-2)Man(a1-3)Man(b1-4)GlcNAc(b1-4)GlcNAc
How it was run: as §1

[41] = biological target: Neu5Ac(a2-6)Gal(b1-4)GlcNAc(b1-2)Man(a1-3)[Gal(b1-4)GlcNAc(b1-2)Man(a1-6)]Man(b1-4)GlcNAc(b1-4)GlcNAc
How it was run: as §1

[42] = biological target: Neu5Ac(a2-6)Gal(b1-4)GlcNAc(b1-2)Man(a1-3)[GlcNAc(b1-2)Man(a1-6)]Man(b1-4)GlcNAc(b1-4)GlcNAc
How it was run: as §1

B1: Banana lectin (Musa acuminata) (protein)
chain: MNGAIKVGAWGGNGGSAFDMGPAYRIISVKIFSGDVVDAVDVTFTYYGKTETRHFGGSGGTPHEIVLQEGEYLVGMKGEFGNYHGVVVVGKLGFSTNKKSYGPFGNTGGTPFSLPIAAGKISGFFGRGGDFIDAIGVYLEP
[1]
  glycan array binding signal (z-score): -0.18
[2]
  glycan array binding signal (z-score): -0.193
[3]
  glycan array binding signal (z-score): -0.194
[4]
  glycan array binding signal (z-score): -0.2
[5]
  glycan array binding signal (z-score): -0.194
[6]
  glycan array binding signal (z-score): -0.195
[7]
  glycan array binding signal (z-score): -0.195
[8]
  glycan array binding signal (z-score): -0.172
[9]
  glycan array binding signal (z-score): -0.196
[10]
  glycan array binding signal (z-score): -0.119
[11]
  glycan array binding signal (z-score): -0.193
[12]
  glycan array binding signal (z-score): -0.179
[13]
  glycan array binding signal (z-score): -0.195
[14]
  glycan array binding signal (z-score): -0.195
[15]
  glycan array binding signal (z-score): -0.193
[16]
  glycan array binding signal (z-score): -0.193
[17]
  glycan array binding signal (z-score): -0.189
[18]
  glycan array binding signal (z-score): -0.193
[19]
  glycan array binding signal (z-score): -0.194
[20]
  glycan array binding signal (z-score): -0.193
[21]
  glycan array binding signal (z-score): -0.195
[22]
  glycan array binding signal (z-score): -0.193
[23]
  glycan array binding signal (z-score): -0.196
[24]
  glycan array binding signal (z-score): -0.186
[25]
  glycan array binding signal (z-score): -0.168
[26]
  glycan array binding signal (z-score): -0.175
[27]
  glycan array binding signal (z-score): -0.191
[28]
  glycan array binding signal (z-score): -0.184
[29]
  glycan array binding signal (z-score): -0.195
[30]
  glycan array binding signal (z-score): -0.196
[31]
  glycan array binding signal (z-score): -0.194
Neu5Ac(a2-3)GalNAc
  glycan array binding signal (z-score): -0.193
[32]
  glycan array binding signal (z-score): -0.193
[33]
  glycan array binding signal (z-score): -0.193
[34]
  glycan array binding signal (z-score): -0.194
[35]
  glycan array binding signal (z-score): -0.199
[36]
  glycan array binding signal (z-score): -0.193
Neu5Ac(a2-6)Gal
  glycan array binding signal (z-score): -0.193
[37]
  glycan array binding signal (z-score): -0.194
Neu5Ac(a2-6)Gal(b1-4)Glc
  glycan array binding signal (z-score): -0.197
[38]
  glycan array binding signal (z-score): -0.195
[39]
  glycan array binding signal (z-score): -0.191
[40]
  glycan array binding signal (z-score): -0.179
[41]
  glycan array binding signal (z-score): -0.142
[42]
  glycan array binding signal (z-score): -0.102
